According to PubChem BioAssay AID624417 (National Center for Advancing Translational Sciences (NCATS), 2012):
The whole screen tested about 410,000 compounds, of which about 6,400 (1.6%) were called active. The inconclusive results got no clear call from the source; some entries with a clear call stand among them for comparison. Calls follow the shape of the dose curve; as a rule, active = well fitted inhibition curve with a large enough effect; inconclusive = small, poorly fitted or top-dose-only effect; inactive = no such curve, though single readings can be large or run the other way. No potency is given beside an inconclusive call; the fits are too rough.

molecular target: Glucagon-like peptide 1 receptor (Homo sapiens) (UniProt P43220); test: qHTS of GLP-1 Receptor Inverse Agonists (Inhibition Mode); details: HEK293 GLP-1R CRE-luciferase, luminescence, 24 h, GLP-1R form is constitutively active; activity change, negative = inhibition: at 38.3 µM (top of the series) unless noted; also: nearly all actives have a fitted effect of over 55% in size
How it was run: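 qHTS in 1536-well format: reporter HEK293 cells expressing constitutive GLP-1R activity in DMEM + 10% Nu serum, 24 hr with compounds at 37 deg C, luminescence read after 12 min with detection reagent.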
% is scaled to controls: 0 for no effect and ±100 for the full control effect; potency is read from the fitted curve at half-maximal effect; tags tell the direction and shape of the fitted curve.

Chain of UniProt P43220 (P43220 whole entry, looked up): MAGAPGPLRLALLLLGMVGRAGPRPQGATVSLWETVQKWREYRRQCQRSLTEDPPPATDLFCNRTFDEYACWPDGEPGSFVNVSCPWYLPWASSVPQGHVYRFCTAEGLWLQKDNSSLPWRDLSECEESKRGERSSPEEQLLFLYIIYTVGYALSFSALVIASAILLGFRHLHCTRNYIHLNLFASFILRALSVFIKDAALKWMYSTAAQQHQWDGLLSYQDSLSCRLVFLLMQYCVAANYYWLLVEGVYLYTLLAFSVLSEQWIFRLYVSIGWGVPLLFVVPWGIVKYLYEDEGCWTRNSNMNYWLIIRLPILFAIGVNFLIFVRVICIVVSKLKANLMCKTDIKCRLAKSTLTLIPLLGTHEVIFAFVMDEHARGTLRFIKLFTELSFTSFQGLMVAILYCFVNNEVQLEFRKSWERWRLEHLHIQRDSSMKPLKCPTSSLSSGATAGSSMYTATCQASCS

Structure (SMILES)	Potency	activity change, negative = inhibition
Cc1ccc(Nc2ncccc2C(=O)NCc2cccs2)c(C)c1	inconclusive [inhibitor, single point]	
COc1ccc(C(=O)NC2CCCc3ccccc32)cc1 (stereo not drawn)	inconclusive [inhibitor, single point]	
O=C(CCCN1C(=O)/C(=C/c2ccco2)SC1=S)Nc1ccccc1C(=O)O		inactive: 23.8%
Cc1cccc(N2CCN(C(=O)/C=C/c3cccs3)CC2)c1C	inconclusive [inhibitor, partial curve, poor fit]	
O=C(Nc1ccc(-n2cccn2)cc1)C1CCN(Cc2ccsc2)CC1	inconclusive [inhibitor, single point]	
COCCNC(=S)N1CCN(c2nc3ccccc3s2)CC1		inactive: 3.07%
CCCCCCSc1ccc([C@@H]2[C@@H]3C(=O)N(C)C(=O)[C@@H]3[C@]3(C(=O)OC)CCCCN23)cc1OC	inconclusive [inhibitor, partial curve, poor fit]	
Cc1ccc(S(=O)(=O)CCC(=O)Nc2nc(-c3ccccn3)cs2)cc1	inconclusive [inhibitor, single point]	
CC(C)CN1C(=O)c2ccc(NC(=O)c3cccs3)cc2C1=O		inactive: 0%
CCOc1ccccc1N1CSC2=C(C#N)C(c3c(OC)ccc4ccccc34)CC(=O)N2C1 (stereo not drawn)		inactive: -6.43%
Cc1ccc(C(=O)N2CC=C(c3ccccc3)CC2)s1	inconclusive [inhibitor, partial curve, poor fit]	
CC(C)Oc1ccc(CNC(=O)C2=Cc3ccccc3OC2)cc1	inconclusive [inhibitor, single point]	
CCOCCCN(Cc1ccco1)C(=O)c1cc2c(s1)-c1c(C)cccc1OC2	inconclusive [inhibitor, single point]	
CC(C)(C)OC(=O)NCC12C=CC(O1)C1C(=O)N(Cc3ccccc3)C(=O)C12 (stereo not drawn)	inconclusive [inhibitor, partial curve, poor fit]	
CCCCOc1ccc(C(=O)N/C(=C/C=C/c2ccccc2)C(=O)NCCO)cc1	inconclusive [inhibitor, single point]	
Cc1ccc(S(=O)(=O)N(C)c2ccc(C(=O)NCc3cccnc3)cc2)cc1	inconclusive [inhibitor, full curve, poor fit]	
COc1ccc(OC)c(NC(=O)c2nc(S(=O)(=O)Cc3ccc(F)cc3)ncc2Cl)c1	inconclusive [inhibitor, single point]	
COc1ccc(OCC(=O)Nc2ccc(N3CCN(C(=O)c4ccco4)CC3)cc2)cc1		inactive: -0.417% [at 7.66 µM]
CCOC(=O)N[C@H](Cc1c[nH]c2ccccc12)C(=O)Nc1cccc(Cl)c1	inconclusive [inhibitor, single point]	
CC(C(=O)NCCSCc1cccc(Cl)c1)N(c1ccccc1)S(C)(=O)=O (stereo not drawn)	inconclusive [inhibitor, single point]	inconclusive: -70.1% [inhibitor]
CCCCC(CC)CNS(=O)(=O)c1ccc2c(c1)CCN2C(=O)CCC(=O)O (stereo not drawn)		inactive: 7.73%

Structure (SMILES)	Potency	activity change, negative = inhibition
O=C(Nc1ccc2c(c1)OCCO2)NC12CC3CC(CC(C3)C1)C2	inconclusive [inhibitor, single point]	
O=C(CN1CCCC1)NC(c1ccccc1)c1ccccc1	inconclusive [inhibitor, partial curve, poor fit]	
Cc1ccc(NC2=C/C(=N\S(=O)(=O)c3cccs3)c3ccccc3C2=O)c(C)c1	inconclusive [inhibitor, full curve, poor fit]	
COc1ccc(CCNC(=O)CCn2c(=O)c3ccccc3n(Cc3ccccc3F)c2=O)cc1OC		inactive: -16.9%
CCCC(C(=O)NC1CCCC1)N(C(=O)c1snc(C(N)=O)c1N)c1ccc(F)cc1 (stereo not drawn)		inconclusive: -39.5% [inhibitor]
O=C(COc1ccc(Cl)cc1Cl)NCC1(N2CCOCC2)CCCCC1	inconclusive [inhibitor, partial curve, poor fit]	
CC(C)c1ccc(/C=C2\SC(=S)N(CCC(=O)NCCCn3ccnc3)C2=O)cc1	active: 2.51 µM	
Cc1ccc(-n2c(C)cc(C(=O)C(=O)Nc3ccccc3)c2C)c(C)c1	inconclusive [inhibitor, full curve]	
O=C(C(Cc1ccccc1)n1cccc1)N1CCN(c2cccc(Cl)c2)CC1 (stereo not drawn)	active: 11.2 µM	
CCOc1ccc(C(=O)NC(=S)N2CCN(c3ccc(C(F)(F)F)cc3[N+](=O)[O-])CC2)cc1		inactive: 18.7%
O=C(NNC1=C(C(=O)C(F)(F)F)CCC1)c1cccc(O)c1	inconclusive [inhibitor, full curve]	
N#C/C(=N\Nc1ccc(Cl)cc1)C(=N)N1CCCCC1	inconclusive [inhibitor, single point]	
Cc1nn(-c2ccccc2)c2sc(C(=O)N(CC(=O)NC(C)(C)C)Cc3ccco3)cc12	inconclusive [inhibitor, single point]	
COc1ccc(S(=O)(=O)Cc2ccc(C(=O)NC3CCCCCC3)o2)cc1	inconclusive [inhibitor, full curve, poor fit]	
CCc1ccc(N2CC(C(=O)Nc3ccc(S(=O)(=O)N4CCCCC4)cc3)CC2=O)cc1 (stereo not drawn)	inconclusive [inhibitor, partial curve, poor fit]	
CC(C)CC1C(=O)N(Cc2cn(Cc3ccco3)nn2)CCS(=O)(=O)N1Cc1ccc(-c2ccccc2)cc1 (stereo not drawn)	inconclusive [inhibitor, single point]	
COc1ccc(NC(=O)C2Cc3c(-c4ccccc4Oc4ccccc4)ccnc3O2)cc1 (stereo not drawn)	inconclusive [inhibitor, single point]	
CCCCN(C)C(=O)CCC(=O)Nc1ccc2nc(N3CCOCC3)cc(C)c2c1		inactive: 4.98%
CSc1ccc(S(=O)(=O)NCCSc2ccccn2)cc1		inactive: -6.9%
Cc1ccc(NC(=O)/C=C\C(=O)N(c2ccc(C(C)C)cc2)C(C(=O)NCc2ccco2)c2ccc(Cl)cc2)cc1 (stereo not drawn)	inconclusive [inhibitor, partial curve, poor fit]	
O=C(N/N=C/c1c[nH]c2ccccc12)c1ccn(Cc2ccc(Cl)cc2Cl)n1	inconclusive [inhibitor, partial curve, poor fit]	

Structure (SMILES)	Potency	activity change, negative = inhibition
Cc1ccc2cccc(Oc3ncnc4scc(-c5ccccc5)c34)c2n1	inconclusive [inhibitor, partial curve, poor fit]	
CC1=C(C(=O)N2CCCCCC2)CC(CC(=O)NC2CCCC2)C(=O)N1Cc1ccc(C(C)(C)C)cc1 (stereo not drawn)	inconclusive [inhibitor, partial curve, poor fit]	
CCSc1ncc(Cl)c(C(=O)N2CCN(c3ccccc3OC)CC2)n1	inconclusive [inhibitor, full curve]	
COC(=O)Nc1ncc(CN2CCC(c3ccccc3)CC2)s1		inactive: 7.14%
COc1ccccc1S(=O)Cc1ccc(C(=O)NCCc2ccc(Cl)cc2)o1 (stereo not drawn)	inconclusive [inhibitor, partial curve, poor fit]	
COCCCN(C(=S)Nc1cc(Cl)cc(Cl)c1)C(C)c1ccccn1 (stereo not drawn)	inconclusive [inhibitor, single point]	
CCn1c(=NC(=O)C2COc3ccccc3O2)sc2c(C)ccc(OC)c21 (stereo not drawn)	inconclusive [inhibitor, full curve, poor fit]	
COc1cccc(-n2ccnc2SCC(=O)Nc2c(C)cc(C)cc2C)c1	inconclusive [inhibitor, single point]	
COc1ccc(CCNc2nc(-c3cccnc3)nc3ccccc23)cc1OC	inconclusive [inhibitor, partial curve, poor fit]	
O=C(/C=C/c1cccc([N+](=O)[O-])c1)Nc1cccc(NC(=O)c2ccco2)c1	inconclusive [inhibitor, partial curve, poor fit]	
C=CCNc1nc(N)c(C(=O)c2ccc3c(c2)OCO3)s1	inconclusive [inhibitor, single point]	
CCOC(=O)c1c(-c2ccccc2)cn2ccccc12	inconclusive [inhibitor, partial curve]	
CCn1c(CCCOc2ccc(Cl)cc2Cl)n[nH]c1=S	inconclusive [inhibitor, single point]	
CC1=NN(C(=O)c2ccc(Cn3nc(C)cc3C)o2)C(O)(C(F)(F)F)C1 (stereo not drawn)		inactive: -4.82%
COc1ccc(CNC(=S)Nc2ccccc2Cl)cc1	inconclusive [inhibitor, single point]	
Cc1c(Br)c([N+](=O)[O-])nn1CCCC(=O)N1CCN(c2ccccc2)CC1	inconclusive [inhibitor, single point]	
CCC1Nc2ncnc(N3CCN(c4ccccc4)CC3)c2N(Cc2ccc(Cl)cc2)C1=O (stereo not drawn)	inconclusive [inhibitor, single point]	
C=Cn1cc[n+](CC(=O)c2ccc(-c3ccccc3)cc2)c1	inconclusive [inhibitor, partial curve, poor fit]	
C=CCNCCOCCOc1ccc(C)cc1Br	inconclusive [inhibitor, partial curve]	
Cc1ccc(S(=O)(=O)N2CCCCC2)cc1NC(=O)Cc1c[nH]c2ccccc12	inconclusive [inhibitor, single point]	
